# Some of the results follow. The full chains were built here from the parent and the listed change. Inactive controls read about 0.05.
# B1: TEV protease; numbered along this chain (parent)
# chain: MGESLFKGPRDYNPISSSICHLTNESDGHTTSLYGIGFGPFIITNKHLFRRNNGTLVVQSLHGVFKVKDTTTLQQHLVDGRDMIIIRMPKDFPPFPQKLKFREPQREERICLVTTNFQTKSMSSMVSDTSCTFPSGDGIFWKHWIQTKDGQCGSPLVSTRDGFIVGIHSASNFTNTNNYFTSVPKNFMELLTNQEAQQWVSGWRLNADSVLWGGHKVFMVKPEEPFQPVKEATQL
# Variants of: B1
# Assay: raw area under fraction-flipped curve 0-4 h after induction (AUC4h, not background-subtracted), DNA-recorder readout of cleavage of the substrate (dimensionless); higher = more cleavage of the substrate by the protease variant
# Details: temperature: 34 °C; time window: 0-4 h after rhamnose induction
# 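Note: Bxb1 expression induced with 0.2% (w/v) L-rhamnose at OD600 near 0.5, cultures sampled hourly, flipped fraction per protease–substrate barcode pair counted by paired-end Illumina sequencing.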
Variant,area with substrate ENCYFQS,area with substrate ENDYFQS,area with substrate ENEYFQS,area with substrate ENGYFQS,area with substrate ENHYFQS,area with substrate ENKYFQS,area with substrate ENMYFQS,area with substrate ENNYFQS,area with substrate ENPYFQS,area with substrate ENQYFQS,area with substrate ENSYFQS,area with substrate ENTYFQS,area with substrate ENVYFQS,area with substrate ENFYFQS,area with substrate ENAYFQS,area with substrate ENRYFQS,area with substrate ENWYFQS,area with substrate ENYYFQS,area with substrate ENIYFQS
T23I,0.065,0.0594,0.0428,0.0692,0.0633,0.0557,0.0797,0.0491,0.0585,0.0636,0.0546,0.0799,0.0761,,,,,,
T129Q,0.0575,0.0738,0.0648,0.0659,,0.0754,,0.0645,0.0673,0.0467,0.0448,0.0637,,0.0555,,,,,
Q227I,,0.0494,,0.0477,0.044,,,,,0.052,,,,,0.105,0.0615,0.0515,,
K230V,0.0599,0.0663,0.0595,0.0548,0.0677,0.0441,,0.0684,0.0717,0.0616,0.0661,0.0609,0.0918,0.0617,0.0593,,,0.0562,
S4R,0.0649,0.0563,0.0697,0.0517,0.0482,0.0564,0.136,0.0712,0.0345,0.0707,0.0632,0.068,0.0793,0.0522,,0.0636,,0.037,0.128
I167T,0.0462,0.0631,0.0412,0.0682,0.0488,0.0533,0.0564,0.0509,,0.0524,0.0593,0.0552,0.0565,0.0593,,,0.0521,,0.053
S32H,0.0716,0.0605,0.0587,0.0569,0.0584,0.0873,,0.0596,0.058,0.055,0.0585,0.0711,0.0791,0.0431,,0.0602,,,0.0937
G202A,0.074,0.0611,0.062,0.0752,,0.0504,,0.0655,0.056,0.0596,0.0615,0.0649,0.0607,0.0554,0.0634,0.0525,0.0483,,0.066
V220P,0.0561,0.0612,0.0759,0.0597,0.07,0.0831,0.0888,0.0609,,0.0628,0.0615,0.0592,0.0557,0.0607,0.0432,0.0559,0.0594,,0.0748
E224F,,0.0654,,0.0837,,,0.0879,,,0.0567,0.0626,0.0643,,0.0655,0.0602,0.0688,,0.0615,0.101
F218P,,,0.0703,0.0626,,0.0594,0.076,0.0641,,0.0884,0.0695,0.0633,,,0.0724,0.0511,,,
T233H,0.0742,0.0497,,,,0.0658,0.114,0.0632,,,0.0593,0.0657,0.0707,,0.0493,0.0605,0.0287,,
T55G,0.0585,0.0628,0.0438,0.0708,0.0516,0.0724,0.0764,0.0569,,0.0569,0.0564,0.0427,0.0838,0.0658,,0.0549,,,0.109
G28C,0.0682,0.0517,,0.0569,,,,0.0639,,0.0679,0.0608,,,,,0.0383,0.0589,,0.106
S26K,0.0732,0.0697,0.0652,0.0647,0.0713,0.0676,0.0647,0.0611,0.059,0.0616,0.054,0.0683,0.0628,0.0468,,,0.0438,,
K221I,0.061,0.0579,0.0753,0.0797,,,0.0689,0.0783,,0.0656,0.043,0.055,0.0614,0.0444,0.0469,0.0574,0.0521,0.0385,
I139G,0.0883,0.0624,0.0584,,0.0553,0.0656,0.0707,0.0681,0.0514,0.0612,0.0535,0.0502,0.0601,0.0898,,0.0411,,,0.118
E103A,0.0701,0.0725,0.0627,0.056,0.0733,0.0583,0.0901,,,0.0616,0.0599,,0.084,0.0574,,0.0574,,0.0621,
F226W,0.0693,0.063,0.0677,0.0589,0.0459,0.0497,,0.0627,0.0527,0.0632,0.0618,,0.0645,0.0568,0.0582,0.057,0.0689,0.0669,0.117
P222C,0.0544,,0.0584,0.0595,,0.0532,,,0.0741,0.0833,0.0479,0.0508,0.0707,0.0783,0.065,0.0516,,0.0498,0.0829
M219V,0.069,0.0572,0.0611,0.0607,0.05,,,0.0588,0.0569,0.0617,0.0606,0.0713,0.0731,0.0472,0.0536,0.0593,0.0515,,
M219C,,,0.0236,0.0625,,,,0.0592,0.0471,,0.0687,0.0505,,,0.0571,,0.0145,,
T115N,0.0625,0.0615,,0.0527,0.0532,,0.0872,0.0593,0.0531,0.0716,0.0304,0.0822,0.0852,,,0.0457,,,
Q118T,0.071,0.0345,0.067,,,0.0427,,,,0.0569,0.0685,0.0436,0.103,,,0.0703,0.0596,,
L205W,,0.0575,0.0622,0.0709,,,0.0658,,0.0598,0.0738,0.0456,,0.0459,,0.0528,0.0392,,,0.0868
R204T,0.0633,0.0616,0.0661,0.0794,0.0638,0.0647,0.0867,0.0518,0.0671,0.0595,0.0571,0.0579,0.0827,0.064,0.069,,0.0548,0.0674,
